Data on 4 variants can be found in the supplement of paper PMC12217912.

B1: TEV protease; numbered along this chain (parent)
chain: MGESLFKGPRDYNPISSSICHLTNESDGHTTSLYGIGFGPFIITNKHLFRRNNGTLVVQSLHGVFKVKDTTTLQQHLVDGRDMIIIRMPKDFPPFPQKLKFREPQREERICLVTTNFQTKSMSSMVSDTSCTFPSGDGIFWKHWIQTKDGQCGSPLVSTRDGFIVGIHSASNFTNTNNYFTSVPKNFMELLTNQEAQQWVSGWRLNADSVLWGGHKVFMVKPEEPFQPVKEATQL

The list shows a part of the results. Sequences were assembled here from the parent chain. Inactive controls read about 0.05.
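Also: Bxb1 expression induced with 0.2% (w/v) L-rhamnose at OD600 near 0.5, cultures sampled hourly, flipped fraction per protease–substrate barcode pair counted by paired-end Illumina sequencing.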

In this assay the parent is B1. Kind of assay: raw area under fraction-flipped curve 0-4 h after induction (AUC4h, not background-subtracted), DNA-recorder readout of cleavage of the substrate (dimensionless); higher = more cleavage of the substrate by the protease variant. Conditions: temperature: 34 °C; time window: 0-4 h after rhamnose induction.
Regarding F101D, the “area with substrate ENLYFQR” value was 0.0442, the “area with substrate ENLYFQS” value worked out at 0.0598 and the “area with substrate ENLYFQW” value stood at 0.0561.
As to Y34W, the “area with substrate ENLYFQS” value was 0.104.
The same measure, in the same setting: the figure for F92R is 0.0714.
For the variant Q97K, the “area with substrate ENLYFQR” value was 0.0593 and the “area with substrate ENLYFQT” value came out at 0.0601.
